Experiment [1] concerns the target T1, KIF1A(1–393)-3xmCit (rat) (UniProt F1M4A4).
T1 sequence: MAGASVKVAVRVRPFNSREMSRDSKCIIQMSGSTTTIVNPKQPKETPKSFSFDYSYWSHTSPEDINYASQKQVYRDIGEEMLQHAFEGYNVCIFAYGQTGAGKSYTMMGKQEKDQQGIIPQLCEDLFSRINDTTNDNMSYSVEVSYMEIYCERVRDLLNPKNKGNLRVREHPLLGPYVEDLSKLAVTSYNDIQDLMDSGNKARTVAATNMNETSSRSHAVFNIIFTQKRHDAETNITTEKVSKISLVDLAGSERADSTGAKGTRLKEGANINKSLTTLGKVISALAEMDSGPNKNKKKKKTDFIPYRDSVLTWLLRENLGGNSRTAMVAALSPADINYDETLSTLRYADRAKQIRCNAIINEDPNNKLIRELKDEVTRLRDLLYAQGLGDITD
Kind of experiment: two-colour single-molecule TIRF motility assay (co-migration); lysates of COS cells coexpressing KIF1A(1–393)-3xmCit and KIF1A(1–393)-3xmCherry on microtubules; mCit and mCherry tracked at once.

The target of experiment [2] is T2, KIF1A(1–726)-Myc (rat) (UniProt F1M4A4).
T2 sequence: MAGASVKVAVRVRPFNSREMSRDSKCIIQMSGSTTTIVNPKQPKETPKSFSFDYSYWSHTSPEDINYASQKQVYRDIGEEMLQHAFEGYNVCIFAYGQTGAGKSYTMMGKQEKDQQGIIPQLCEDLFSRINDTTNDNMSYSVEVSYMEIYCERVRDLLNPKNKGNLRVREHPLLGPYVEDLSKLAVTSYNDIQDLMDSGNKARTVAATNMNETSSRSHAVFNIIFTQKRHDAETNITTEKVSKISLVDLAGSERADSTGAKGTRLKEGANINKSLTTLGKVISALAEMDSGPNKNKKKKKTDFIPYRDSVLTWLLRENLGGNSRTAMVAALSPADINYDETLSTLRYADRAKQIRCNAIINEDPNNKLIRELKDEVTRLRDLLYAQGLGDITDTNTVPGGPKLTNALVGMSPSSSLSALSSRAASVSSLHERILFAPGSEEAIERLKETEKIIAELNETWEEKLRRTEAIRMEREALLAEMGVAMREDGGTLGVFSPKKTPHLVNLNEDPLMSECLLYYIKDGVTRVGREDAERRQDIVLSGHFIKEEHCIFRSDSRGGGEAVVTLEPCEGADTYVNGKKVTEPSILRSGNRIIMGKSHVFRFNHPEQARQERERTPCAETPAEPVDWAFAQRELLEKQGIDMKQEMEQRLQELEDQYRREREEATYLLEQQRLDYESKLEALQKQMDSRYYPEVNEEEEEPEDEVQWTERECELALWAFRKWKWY
Kind of experiment: co-IP; lysates of COS cells coexpressing Myc- and mCit-tagged KIF1A constructs of the same length; immunoprecipitated with anti-Myc or control IgG, SDS-PAGE, immunoblot. (In general: Immunoblotting shows a protein as a band on a membrane.)

Experiment [3] addresses Myc-KIF1A (rat) (UniProt F1M4A4). The description is as above.
For experiment [4], the target named is endogenous KIF1A in rat brain cytosol (rat (endogenous in rat brain)) (UniProt F1M4A4). The experiment in a line: sucrose density gradient centrifugation; cytosolic extract of rat brain compared with detergent extracts of COS cells expressing Myc-KIF1A or mCit-KIF1A; fractions immunoblotted; standards catalase (11.3 S) and bovine serum albumin (4.3 S).

These are yes or no findings as the source states them, for the method shown. For some of these results: In cells and extracts the contact can be indirect. Some entries that bind do so weakly or less than the wild type. For some of these results: Tags and fused reporters may be left off the sequences shown.

B1: KIF1A(1–393)-3xmCherry (domain or fragment, UniProt F1M4A4 1-393)
chain: MAGASVKVAVRVRPFNSREMSRDSKCIIQMSGSTTTIVNPKQPKETPKSFSFDYSYWSHTSPEDINYASQKQVYRDIGEEMLQHAFEGYNVCIFAYGQTGAGKSYTMMGKQEKDQQGIIPQLCEDLFSRINDTTNDNMSYSVEVSYMEIYCERVRDLLNPKNKGNLRVREHPLLGPYVEDLSKLAVTSYNDIQDLMDSGNKARTVAATNMNETSSRSHAVFNIIFTQKRHDAETNITTEKVSKISLVDLAGSERADSTGAKGTRLKEGANINKSLTTLGKVISALAEMDSGPNKNKKKKKTDFIPYRDSVLTWLLRENLGGNSRTAMVAALSPADINYDETLSTLRYADRAKQIRCNAIINEDPNNKLIRELKDEVTRLRDLLYAQGLGDITD
Turning to B1, in experiment [1], the binding result was “binds”.

B2: KIF1A(1–726)-mCit (domain or fragment, rat, UniProt F1M4A4 1-726, looked up)
chain: MAGASVKVAVRVRPFNSREMSRDSKCIIQMSGSTTTIVNPKQPKETPKSFSFDYSYWSHTSPEDINYASQKQVYRDIGEEMLQHAFEGYNVCIFAYGQTGAGKSYTMMGKQEKDQQGIIPQLCEDLFSRINDTTNDNMSYSVEVSYMEIYCERVRDLLNPKNKGNLRVREHPLLGPYVEDLSKLAVTSYNDIQDLMDSGNKARTVAATNMNETSSRSHAVFNIIFTQKRHDAETNITTEKVSKISLVDLAGSERADSTGAKGTRLKEGANINKSLTTLGKVISALAEMDSGPNKNKKKKKTDFIPYRDSVLTWLLRENLGGNSRTAMVAALSPADINYDETLSTLRYADRAKQIRCNAIINEDPNNKLIRELKDEVTRLRDLLYAQGLGDITDTNTVPGGPKLTNALVGMSPSSSLSALSSRAASVSSLHERILFAPGSEEAIERLKETEKIIAELNETWEEKLRRTEAIRMEREALLAEMGVAMREDGGTLGVFSPKKTPHLVNLNEDPLMSECLLYYIKDGVTRVGREDAERRQDIVLSGHFIKEEHCIFRSDSRGGGEAVVTLEPCEGADTYVNGKKVTEPSILRSGNRIIMGKSHVFRFNHPEQARQERERTPCAETPAEPVDWAFAQRELLEKQGIDMKQEMEQRLQELEDQYRREREEATYLLEQQRLDYESKLEALQKQMDSRYYPEVNEEEEEPEDEVQWTERECELALWAFRKWKWY
notes: source: COS cells, transfected, in lysate; not shown: mCit (monomeric citrine), C-terminal, kept
As to B2, the binding entry in experiment [2] was “binds”.

B3: mCit-KIF1A (natural protein, rat, UniProt F1M4A4 1-1707, looked up)
chain: MAGASVKVAVRVRPFNSREMSRDSKCIIQMSGSTTTIVNPKQPKETPKSFSFDYSYWSHTSPEDINYASQKQVYRDIGEEMLQHAFEGYNVCIFAYGQTGAGKSYTMMGKQEKDQQGIIPQLCEDLFSRINDTTNDNMSYSVEVSYMEIYCERVRDLLNPKNKGNLRVREHPLLGPYVEDLSKLAVTSYNDIQDLMDSGNKARTVAATNMNETSSRSHAVFNIIFTQKRHDAETNITTEKVSKISLVDLAGSERADSTGAKGTRLKEGANINKSLTTLGKVISALAEMDSGPNKNKKKKKTDFIPYRDSVLTWLLRENLGGNSRTAMVAALSPADINYDETLSTLRYADRAKQIRCNAIINEDPNNKLIRELKDEVTRLRDLLYAQGLGDITDTNTVPGGPKLTNALVGMSPSSSLSALSSRAASVSSLHERILFAPGSEEAIERLKETEKIIAELNETWEEKLRRTEAIRMEREALLAEMGVAMREDGGTLGVFSPKKTPHLVNLNEDPLMSECLLYYIKDGVTRVGREDAERRQDIVLSGHFIKEEHCIFRSDSRGGGEAVVTLEPCEGADTYVNGKKVTEPSILRSGNRIIMGKSHVFRFNHPEQARQERERTPCAETPAEPVDWAFAQRELLEKQGIDMKQEMEQRLQELEDQYRREREEATYLLEQQRLDYESKLEALQKQMDSRYYPEVNEEEEEPEDEVQWTERECELALWAFRKWKWYQFTSLRDLLWGNAIFLKEANAISVELKKKVQFQFVLLTDTLYSPLPPDLLPPEAAKDRETRPFPRTIVAVEVQDQKNGATHYWTLEKLRQRLDLMREMYDRAAEVPSSVVEDCDNVVTGGDPFYDRFPWFRLVGRAFVYLSNLLYPVPLVHRVAIVSEKGEVKGFLRVAVQAISADEEAPDYGSGVRQSGTAKISFDDQHFEKFQSESCPVVGMSRSGTSQEELRIVEGQGQGADAGPSADEVNNNTCSAVPPEGLLDSPEKAALDGPLDTALDHLRLGSTFTFRVTVLQASSISAEYADIFCQFNFIHRHDEAFSTEPLKNTGRGPPLGFYHVQNIAVEVTKSFIEYIKSQPIVFEVFGHYQQHPFPPLCKDVLSPLRPSRRHFPRVMPLSKPVPATKLSTMTRPSPGPCHCKYDLLVYFEICELEANGDYIPAVVDHRGGMPCMGTFLLHQGIQRRITVTLLHETGSHIRWKEVRELVVGRIRNTPETDEALIDPNILSLNILSSGYVHPAQDDRQFLDSDIPRTFYQFEAAWDSSMHNSLLLNRVTPYREKIYMTLSAYIEMENCTQPAVITKDFCMVFYSRDAKLPASRSIRNLFGSGSLRATEGNRVTGVYELSLCHVADAGSPGMQRRRRRVLDTSVAYVRGEENLAGWRPRSDSLILDHQWELEKLSLLQEVEKTRHYLLLREKLETTQRPVPEVLSPASSEDSESRSSSGASSPLSAEGQPSPLEVPNERQRELAVKCLRLLMHTFNREYTHSHVCISASESKLSEMSVTLMRDPSMSPLGAATLTPSSTCPSLIEGRYGATDVRTPQPCSRPASPEPELLPELDSKKTPSPVRATETEKEPQRLLVPDIQEIRVSPIVSKKGYLHFLEPHTAGWAKRFVVVRRPYAYMYNSDKDTVERFVLNLSTAQVEYSEDQQAMLKTPNTFAVCTEHRGILLQANSDKDMHDWLYAFNPLLAGTIRSKLSRRRSAQMRV
notes: KIF1A (Kinesin-3 motor), rat, full length; also called mCit-tagged KIF1A; FL KIF1A; source: COS cells, transfected; in lysate and in live cells; not shown: mCit (monomeric citrine), N-terminal, kept
As to B3, the binding entry in experiment [3] is reported as “binds”.

B4: endogenous KIF1A in rat brain cytosol (natural protein, rat (endogenous in rat brain), UniProt F1M4A4 1-1707, looked up)
chain: MAGASVKVAVRVRPFNSREMSRDSKCIIQMSGSTTTIVNPKQPKETPKSFSFDYSYWSHTSPEDINYASQKQVYRDIGEEMLQHAFEGYNVCIFAYGQTGAGKSYTMMGKQEKDQQGIIPQLCEDLFSRINDTTNDNMSYSVEVSYMEIYCERVRDLLNPKNKGNLRVREHPLLGPYVEDLSKLAVTSYNDIQDLMDSGNKARTVAATNMNETSSRSHAVFNIIFTQKRHDAETNITTEKVSKISLVDLAGSERADSTGAKGTRLKEGANINKSLTTLGKVISALAEMDSGPNKNKKKKKTDFIPYRDSVLTWLLRENLGGNSRTAMVAALSPADINYDETLSTLRYADRAKQIRCNAIINEDPNNKLIRELKDEVTRLRDLLYAQGLGDITDTNTVPGGPKLTNALVGMSPSSSLSALSSRAASVSSLHERILFAPGSEEAIERLKETEKIIAELNETWEEKLRRTEAIRMEREALLAEMGVAMREDGGTLGVFSPKKTPHLVNLNEDPLMSECLLYYIKDGVTRVGREDAERRQDIVLSGHFIKEEHCIFRSDSRGGGEAVVTLEPCEGADTYVNGKKVTEPSILRSGNRIIMGKSHVFRFNHPEQARQERERTPCAETPAEPVDWAFAQRELLEKQGIDMKQEMEQRLQELEDQYRREREEATYLLEQQRLDYESKLEALQKQMDSRYYPEVNEEEEEPEDEVQWTERECELALWAFRKWKWYQFTSLRDLLWGNAIFLKEANAISVELKKKVQFQFVLLTDTLYSPLPPDLLPPEAAKDRETRPFPRTIVAVEVQDQKNGATHYWTLEKLRQRLDLMREMYDRAAEVPSSVVEDCDNVVTGGDPFYDRFPWFRLVGRAFVYLSNLLYPVPLVHRVAIVSEKGEVKGFLRVAVQAISADEEAPDYGSGVRQSGTAKISFDDQHFEKFQSESCPVVGMSRSGTSQEELRIVEGQGQGADAGPSADEVNNNTCSAVPPEGLLDSPEKAALDGPLDTALDHLRLGSTFTFRVTVLQASSISAEYADIFCQFNFIHRHDEAFSTEPLKNTGRGPPLGFYHVQNIAVEVTKSFIEYIKSQPIVFEVFGHYQQHPFPPLCKDVLSPLRPSRRHFPRVMPLSKPVPATKLSTMTRPSPGPCHCKYDLLVYFEICELEANGDYIPAVVDHRGGMPCMGTFLLHQGIQRRITVTLLHETGSHIRWKEVRELVVGRIRNTPETDEALIDPNILSLNILSSGYVHPAQDDRQFLDSDIPRTFYQFEAAWDSSMHNSLLLNRVTPYREKIYMTLSAYIEMENCTQPAVITKDFCMVFYSRDAKLPASRSIRNLFGSGSLRATEGNRVTGVYELSLCHVADAGSPGMQRRRRRVLDTSVAYVRGEENLAGWRPRSDSLILDHQWELEKLSLLQEVEKTRHYLLLREKLETTQRPVPEVLSPASSEDSESRSSSGASSPLSAEGQPSPLEVPNERQRELAVKCLRLLMHTFNREYTHSHVCISASESKLSEMSVTLMRDPSMSPLGAATLTPSSTCPSLIEGRYGATDVRTPQPCSRPASPEPELLPELDSKKTPSPVRATETEKEPQRLLVPDIQEIRVSPIVSKKGYLHFLEPHTAGWAKRFVVVRRPYAYMYNSDKDTVERFVLNLSTAQVEYSEDQQAMLKTPNTFAVCTEHRGILLQANSDKDMHDWLYAFNPLLAGTIRSKLSRRRSAQMRV
notes: KIF1A, endogenous protein of rat brain cytosol; source: endogenous, cytosolic extract of rat brain
As for B4, in experiment [4], the binding entry was “binds”.

Source of the values: paper PMC2661964, “Mammalian Kinesin-3 Motors Are Dimeric In Vivo and Move by Processive Motility upon Release of Autoinhibition” (PLoS Biology, 2009).
